The other results are listed elsewhere or left out.
Columns and labels:
Test in all cases: glycan array binding signal (z-score within array); higher = stronger binding
Conditions in all cases: glycan notation: IUPAC condensed, linker removed
[1] = target: Gal(b1-3)GalNAc(b1-4)[Neu5Ac(a2-3)]Gal(b1-4)Glc
In short: (§1)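 Columns mapping to the same glycan were averaged after glycan names were converted to IUPAC-condensed notation. The data come from 3228 arrays in the Consortium for Functional Glycomics database, limited to those with an available protein sequence. Binding is reported as a within-array Z-score averaged across arrays of one protein sequence and across linkers.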

Gal(b1-3)GlcNAc = target: Gal(b1-3)GlcNAc
In short: as §1

[2] = target: Gal(b1-3)GlcNAc(b1-3)Gal(b1-3)GlcNAc
In short: as §1

[3] = target: Gal(b1-3)GlcNAc(b1-3)Gal(b1-4)Glc
In short: as §1

[4] = target: Gal(b1-3)[Fuc(a1-4)]GlcNAc
In short: as §1

[5] = target: Gal(b1-3)[Fuc(a1-4)]GlcNAc(b1-3)Gal(b1-3)[Fuc(a1-4)]GlcNAc
In short: as §1

[6] = target: Gal(b1-3)[Fuc(a1-4)]GlcNAc(b1-3)Gal(b1-4)GlcNAc
In short: as §1

[7] = target: Gal(b1-3)[Fuc(a1-4)]GlcNAc(b1-3)Gal(b1-4)[Fuc(a1-3)]GlcNAc
In short: as §1

[8] = target: Gal(b1-3)[GlcNAc(b1-6)]GalNAc
In short: as §1

[9] = target: Gal(b1-3)[GlcNAc(b1-6)]GlcNAc
In short: as §1

[10] = target: Gal(b1-3)[Neu5Ac(a2-6)]GalNAc
In short: as §1

[11] = target: Gal(b1-3)[Neu5Ac(a2-6)]GlcNAc
In short: as §1

[12] = target: Gal(b1-3)[Neu5Ac(a2-6)]GlcNAc(a1-4)Gal(b1-4)Glc
In short: as §1

[13] = target: Gal(b1-3)[Neu5Ac(a2-6)]GlcNAc(b1-4)Gal(b1-4)Glc
In short: as §1

[14] = target: Gal(b1-3)[Neu5Ac(b2-6)]GalNAc
In short: as §1

[15] = target: Gal(b1-3)[Neu5Ac(b2-6)]GlcNAc
In short: as §1

[16] = target: Gal(b1-4)GalNAc(a1-3)[Fuc(a1-2)]Gal(b1-4)GlcNAc
In short: as §1

[17] = target: Gal(b1-4)GalNAc(b1-3)[Fuc(a1-2)]Gal(b1-4)GlcNAc
In short: as §1

Gal(b1-4)Glc = target: Gal(b1-4)Glc
In short: as §1

Gal(b1-4)Glc6S = target: Gal(b1-4)Glc6S
In short: as §1

Gal(b1-4)GlcNAc = target: Gal(b1-4)GlcNAc
In short: as §1

[18] = target: Gal(b1-4)GlcNAc(b1-2)Man(a1-3)[Gal(b1-4)GlcNAc(b1-2)Man(a1-6)]Man(b1-4)GlcNAc(b1-4)GlcNAc
In short: as §1

[19] = target: Gal(b1-4)GlcNAc(b1-3)Gal(b1-3)GlcNAc
In short: as §1

[20] = target: Gal(b1-4)GlcNAc(b1-3)Gal(b1-4)Glc
In short: as §1

[21] = target: Gal(b1-4)GlcNAc(b1-3)Gal(b1-4)GlcNAc
In short: as §1

[22] = target: Gal(b1-4)GlcNAc(b1-3)Gal(b1-4)GlcNAc(b1-3)Gal(b1-4)GlcNAc
In short: as §1

[23] = target: Gal(b1-4)GlcNAc(b1-3)Gal(b1-4)[Fuc(a1-3)]GlcNAc(b1-3)Gal(b1-4)[Fuc(a1-3)]GlcNAc
In short: as §1

[24] = target: Gal(b1-4)GlcNAc(b1-3)GalNAc
In short: as §1

[25] = target: Gal(b1-4)GlcNAc(b1-3)[Gal(b1-4)GlcNAc(b1-6)]GalNAc
In short: as §1

[26] = target: Gal(b1-4)GlcNAc(b1-6)GalNAc
In short: as §1

[27] = target: Gal(b1-4)GlcNAc(b1-6)[Gal(b1-3)]GalNAc
In short: as §1

[28] = target: Gal(b1-4)GlcNAc(b1-6)[Gal(b1-3)]GlcNAc
In short: as §1

Gal3S(b1-3)GalNAc = target: Gal3S(b1-3)GalNAc
In short: as §1

Gal3S(b1-3)GlcNAc = target: Gal3S(b1-3)GlcNAc
In short: as §1

[29] = target: Gal3S(b1-3)[Fuc(a1-4)]GlcNAc
In short: as §1

Gal3S(b1-4)Glc = target: Gal3S(b1-4)Glc
In short: as §1

Gal3S(b1-4)Glc6S = target: Gal3S(b1-4)Glc6S
In short: as §1

Gal3S(b1-4)GlcNAc = target: Gal3S(b1-4)GlcNAc
In short: as §1

Gal3S(b1-4)GlcNAc6S = target: Gal3S(b1-4)GlcNAc6S
In short: as §1

Gal3S6S(b1-4)GlcNAc = target: Gal3S6S(b1-4)GlcNAc
In short: as §1

Gal3S6S(b1-4)GlcNAc6S = target: Gal3S6S(b1-4)GlcNAc6S
In short: as §1

Gal4S(b1-4)GlcNAc = target: Gal4S(b1-4)GlcNAc
In short: as §1

Gal4S6S(b1-4)GlcNAc = target: Gal4S6S(b1-4)GlcNAc
In short: as §1

Gal6S(b1-4)Glc = target: Gal6S(b1-4)Glc
In short: as §1

Gal6S(b1-4)Glc6S = target: Gal6S(b1-4)Glc6S
In short: as §1

Gal6S(b1-4)GlcNAc = target: Gal6S(b1-4)GlcNAc
In short: as §1

GalNAc(a1-3)Gal = target: GalNAc(a1-3)Gal
In short: as §1

GalNAc(a1-3)GalNAc = target: GalNAc(a1-3)GalNAc
In short: as §1

[30] = target: GalNAc(b1-3)Gal(a1-4)Gal(b1-4)GlcNAc
In short: as §1

GalNAc(b1-3)GalNAc = target: GalNAc(b1-3)GalNAc
In short: as §1

GalNAc(b1-4)GlcNAc = target: GalNAc(b1-4)GlcNAc
In short: as §1

Glc(a1-4)Glc = target: Glc(a1-4)Glc
In short: as §1

Glc(a1-6)Glc(a1-6)Glc = target: Glc(a1-6)Glc(a1-6)Glc
In short: as §1

Glc(b1-4)Glc = target: Glc(b1-4)Glc
In short: as §1

Glc(b1-6)Glc = target: Glc(b1-6)Glc
In short: as §1

GlcA(b1-3)Gal = target: GlcA(b1-3)Gal
In short: as §1

GlcA(b1-6)Gal = target: GlcA(b1-6)Gal
In short: as §1

[31] = target: GlcNAc(a1-3)Gal(b1-4)GlcNAc
In short: as §1

[32] = target: GlcNAc(a1-6)Gal(b1-4)GlcNAc
In short: as §1

[33] = target: GlcNAc(b1-2)Gal(b1-3)GalNAc
In short: as §1

[34] = target: GlcNAc(b1-2)Gal(b1-3)GlcNAc
In short: as §1

[35] = target: GlcNAc(b1-2)Man(a1-3)[GlcNAc(b1-2)Man(a1-6)]Man(b1-4)GlcNAc(b1-4)GlcNAc
In short: as §1

GlcNAc(b1-3)Gal = target: GlcNAc(b1-3)Gal
In short: as §1

[36] = target: GlcNAc(b1-3)Gal(b1-3)GalNAc
In short: as §1

GlcNAc(b1-3)Gal(b1-4)Glc = target: GlcNAc(b1-3)Gal(b1-4)Glc
In short: as §1

[37] = target: GlcNAc(b1-3)Gal(b1-4)GlcNAc
In short: as §1

[38] = target: GlcNAc(b1-3)Gal(b1-4)GlcNAc(b1-3)Gal(b1-4)GlcNAc
In short: as §1

GlcNAc(b1-3)GalNAc = target: GlcNAc(b1-3)GalNAc
In short: as §1

[39] = target: GlcNAc(b1-3)[GlcNAc(b1-4)][GlcNAc(b1-6)]GlcNAc
In short: as §1

[40] = target: GlcNAc(b1-3)[GlcNAc(b1-6)]Gal(b1-4)GlcNAc
In short: as §1

[41] = target: GlcNAc(b1-3)[GlcNAc(b1-6)]GalNAc
In short: as §1

[42] = target: GlcNAc(b1-3)[GlcNAc(b1-6)]GlcNAc
In short: as §1

[43] = target: GlcNAc(b1-3)[GlcNAc(b1-6)]GlcNAc(b1-4)GlcNAc
In short: as §1

[44] = target: GlcNAc(b1-4)Gal(b1-4)GlcNAc
In short: as §1

[45] = target: GlcNAc(b1-4)GlcNAc(b1-4)GlcNAc
In short: as §1

B1: FBG3 (Homo sapiens), Q9H4M3 (protein)
chain: MAVGNINELPENILLELFTHVPARQLLLNCRLVCSLWRDLIDLVTLWKRKCLREGFITEDWDQPVADWKIFYFLRSLHRNLLHNPCAEEGFEFWSLDVNGGDEWKVEDLSRDQRKEFPNDQVKKYFVTSYYTCLKSQVVDLKAEGYWEELMDTTRPDIEVKDWFAARPDCGSKYQLCVQLLSSAHAPLGTFQPDPATIQQKSDAKWREVSHTFSNYPPGVRYIWFQHGGVDTHYWAGWYGPRVTNSSITIGPPLP
- glycan array binding signal (z-score) [1]: -0.368
- glycan array binding signal (z-score) (Gal(b1-3)GlcNAc): -0.353
- glycan array binding signal (z-score) [2]: -0.398
- glycan array binding signal (z-score) [3]: -0.183
- glycan array binding signal (z-score) [4]: -0.387
- glycan array binding signal (z-score) [5]: -0.007
- glycan array binding signal (z-score) [6]: -0.363
- glycan array binding signal (z-score) [7]: -0.499
- glycan array binding signal (z-score) [8]: -0.256
- glycan array binding signal (z-score) [9]: -0.582
- glycan array binding signal (z-score) [10]: 0.434
- glycan array binding signal (z-score) [11]: -0.145
- glycan array binding signal (z-score) [12]: -0.377
- glycan array binding signal (z-score) [13]: -0.197
- glycan array binding signal (z-score) [14]: -0.325
- glycan array binding signal (z-score) [15]: -0.544
- glycan array binding signal (z-score) [16]: -0.584
- glycan array binding signal (z-score) [17]: -0.706
- glycan array binding signal (z-score) (Gal(b1-4)Glc): 0.009
- glycan array binding signal (z-score) (Gal(b1-4)Glc6S): 0.065
- glycan array binding signal (z-score) (Gal(b1-4)GlcNAc): 0.126
- glycan array binding signal (z-score) [18]: -0.153
- glycan array binding signal (z-score) [19]: 0.018
- glycan array binding signal (z-score) [20]: -0.463
- glycan array binding signal (z-score) [21]: -0.309
- glycan array binding signal (z-score) [22]: -0.667
- glycan array binding signal (z-score) [23]: -0.293
- glycan array binding signal (z-score) [24]: -0.077
- glycan array binding signal (z-score) [25]: -0.345
- glycan array binding signal (z-score) [26]: 0.02
- glycan array binding signal (z-score) [27]: -0.478
- glycan array binding signal (z-score) [28]: -0.504
- glycan array binding signal (z-score) (Gal3S(b1-3)GalNAc): -0.342
- glycan array binding signal (z-score) (Gal3S(b1-3)GlcNAc): -0.002
- glycan array binding signal (z-score) [29]: 0.313
- glycan array binding signal (z-score) (Gal3S(b1-4)Glc): 0.096
- glycan array binding signal (z-score) (Gal3S(b1-4)Glc6S): 0.876
- glycan array binding signal (z-score) (Gal3S(b1-4)GlcNAc): 0.459
- glycan array binding signal (z-score) (Gal3S(b1-4)GlcNAc6S): 2.99
- glycan array binding signal (z-score) (Gal3S6S(b1-4)GlcNAc): 1.73
- glycan array binding signal (z-score) (Gal3S6S(b1-4)GlcNAc6S): 7.93
- glycan array binding signal (z-score) (Gal4S(b1-4)GlcNAc): -0.079
- glycan array binding signal (z-score) (Gal4S6S(b1-4)GlcNAc): 1.57
- glycan array binding signal (z-score) (Gal6S(b1-4)Glc): 0.072
- glycan array binding signal (z-score) (Gal6S(b1-4)Glc6S): 1.07
- glycan array binding signal (z-score) (Gal6S(b1-4)GlcNAc): 1.02
- glycan array binding signal (z-score) (GalNAc(a1-3)Gal): -0.033
- glycan array binding signal (z-score) (GalNAc(a1-3)GalNAc): -0.456
- glycan array binding signal (z-score) [30]: -0.072
- glycan array binding signal (z-score) (GalNAc(b1-3)GalNAc): 0.557
- glycan array binding signal (z-score) (GalNAc(b1-4)GlcNAc): -0.3
- glycan array binding signal (z-score) (Glc(a1-4)Glc): 0.004
- glycan array binding signal (z-score) (Glc(a1-6)Glc(a1-6)Glc): -0.316
- glycan array binding signal (z-score) (Glc(b1-4)Glc): 0.304
- glycan array binding signal (z-score) (Glc(b1-6)Glc): 1.71
- glycan array binding signal (z-score) (GlcA(b1-3)Gal): -0.025
- glycan array binding signal (z-score) (GlcA(b1-6)Gal): -0.048
- glycan array binding signal (z-score) [31]: -0.371
- glycan array binding signal (z-score) [32]: -0.134
- glycan array binding signal (z-score) [33]: -0.731
- glycan array binding signal (z-score) [34]: -0.115
- glycan array binding signal (z-score) [35]: -0.403
- glycan array binding signal (z-score) (GlcNAc(b1-3)Gal): -0.298
- glycan array binding signal (z-score) [36]: -0.297
- glycan array binding signal (z-score) (GlcNAc(b1-3)Gal(b1-4)Glc): -0.262
- glycan array binding signal (z-score) [37]: -0.488
- glycan array binding signal (z-score) [38]: -0.376
- glycan array binding signal (z-score) (GlcNAc(b1-3)GalNAc): -0.513
- glycan array binding signal (z-score) [39]: -0.089
- glycan array binding signal (z-score) [40]: -0.621
- glycan array binding signal (z-score) [41]: -0.356
- glycan array binding signal (z-score) [42]: -0.453
- glycan array binding signal (z-score) [43]: -0.435
- glycan array binding signal (z-score) [44]: -0.449
- glycan array binding signal (z-score) [45]: -0.54
